Assay results published in PubChem BioAssay AID1345082 (National Center for Advancing Translational Sciences (NCATS), 2018).
About 4,000 (4.3%) of roughly 94,000 compounds were called active. The inconclusive results got no clear call from the source; some entries with a clear call stand among them for comparison. Calls follow the shape of the dose curve; as a rule, active = well fitted inhibition curve with a large enough effect; inconclusive = small, poorly fitted or top-dose-only effect; inactive = no such curve, though single readings can be large or run the other way. Where the call is inconclusive, the potency comes from a doubtful curve fit.

assay: Cytotoxic Profiling in NIH 3T3 Cell Line of Diverse Libraries Using Quantitative High-Throughput Screening; conditions: NIH 3T3 viability, CellTiter-Glo ATP luminescence, 48-72 h; series mostly up to 96.7 µM; also: nearly all actives have a fitted effect of over 55% in size
How it was run: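 Viability of NIH 3T3 cells after 48 or 72 hr compound treatment at 37 °C was assessed by CellTiter-Glo, with luminescence imaged following a 10 min room-temperature step.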
Potency is read from the fitted curve at half-maximal effect; tags tell the direction and shape of the fitted curve.

Row | SMILES | Potency
1 | O=C(Nc1cnc(-c2cccc(Cl)c2)nc1)c1ccc(F)cc1F | inconclusive: 70.8 µM [inhibitor, single point]
2 | CN(CC(O)COc1ccccc1CN1CCCOCC1)C1CCCCC1 (stereo not drawn) | inconclusive: 89.1 µM [inhibitor, single point]
3 | COc1cccc(Nc2nccc3c(=O)cc(-c4ccccn4)oc23)c1 | inconclusive: 22.4 µM [inhibitor, partial curve, poor fit]
4 | O=C(NCc1ccc(-c2cccc(Cl)c2)o1)[C@H]1CCC[C@@H](O)C1 | inconclusive: 79.4 µM [inhibitor, partial curve]
5 | O=C(Nc1nccs1)C1c2ccccc2C(=O)N(Cc2ccccc2)C12CCCC2 (stereo not drawn) | inactive
6 | Cc1ccc2c(C(=O)N3CCN(C4CCCCC4)CC3)cc(NC(=O)C3CCC3)cc2n1 | inconclusive: 70.8 µM [inhibitor, single point]
7 | COc1ccc(-c2ccccc2C(=O)N2CCC(NC(=O)c3ccc(F)cc3)CC2)nn1 | inactive
8 | CN(C)C[C@@H]1CN(c2ncccn2)C[C@H]1NC(=O)c1ccncc1 | inactive
9 | O=C(NCC1CCOCC1)Nc1cc(F)c(F)c(F)c1 | inactive
10 | Cc1cc(CNC(=O)c2ccc(S(N)(=O)=O)cc2)c2[nH]c(C)c(C)c2c1 | inactive
11 | CCCC(=O)N1Cc2ccccc2CC2(CCCN(Cc3ccc(O)cc3)C2)C1 (stereo not drawn) | inactive
12 | O=C(c1cc2ccccc2[nH]1)N1CC2CC(C1)[C@@H]1CCCC(=O)N1C2 (stereo partly drawn) | inconclusive: 89.1 µM [inhibitor, single point]
13 | O=C1NC2(CN(Cc3ccc(OC(F)(F)F)cc3)C2)Oc2ccccc21 | inconclusive: 50.1 µM [inhibitor, partial curve, poor fit]
14 | CN(Cc1ccc(F)cc1)C(=O)Nc1ccc(Cl)cc1 | inconclusive: 50.1 µM [inhibitor, partial curve]
15 | CCOC(=O)c1csc(NC(=O)C2CC(=O)N(c3n[nH]c4ccccc34)C2)n1 (stereo not drawn) | inconclusive: 70.8 µM [inhibitor, partial curve, poor fit]
16 | O=C(c1ccc(Cl)nc1)N1CCC2(CC1)CC(c1cccc(C(F)(F)F)c1)=NO2 | inconclusive: 28.2 µM [inhibitor, partial curve, poor fit]
17 | CC(C)c1noc([C@@H]2C[C@H]3C(=O)NCCCCCCN(C(=O)c4ccncc4)[C@H]3C2)n1 | inconclusive: 79.4 µM [inhibitor, partial curve, poor fit]
18 | CN(Cc1cnn(-c2ccc(F)cc2)c1)c1cc(C2CC(O)C2)ncn1 (stereo not drawn) | inconclusive: 22.4 µM [inhibitor, full curve, poor fit]
19 | CN(Cc1cccnc1)c1nc2c(c(=O)[nH]1)CCN(Cc1cc(Cl)ccc1F)CC2 | inconclusive: 50.1 µM [inhibitor, partial curve, poor fit]
20 | CN(C)C(=O)c1cc(-c2ccc(C(F)(F)F)cc2)nc2c1cnn2C | inconclusive: 50.1 µM [inhibitor, partial curve, poor fit]
21 | CNC(=O)c1cc(C)nc2onc(C3CCN(C(=O)c4ccc(C)cc4)C3)c12 (stereo not drawn) | inactive

Row | SMILES | Potency
22 | CN1CCCC1COc1ccc2c(n1)CN(Cc1ccc(F)cc1)C(=O)CO2 (stereo not drawn) | inconclusive: 100 µM [inhibitor, partial curve, poor fit]
23 | CC(=O)N1CCN(C[C@@H]2C=C(C)[C@H](Cc3nnc(-c4cncn4C)o3)C[C@H]2C(C)C)CC1 | inconclusive: 56.2 µM [inhibitor, partial curve, poor fit]
24 | CCN1CCN(C(=O)c2cn3cc(-c4ccc(F)cc4)sc3n2)CC1 | inactive
25 | COc1ccc(Nc2ccnc(N3CCC(NC(=O)Cc4ccc(F)cc4)CC3)n2)cc1 | inconclusive: 31.6 µM [inhibitor, full curve, poor fit]
26 | CNC(=O)c1cc(C)nc2onc(C3CCCN3[S+](=O)([O-])c3ccc(C)cc3)c12 (stereo not drawn) | inactive
27 | COc1ccc(-c2nccn3cc(C(=O)NCc4ccc(OC)c(OC)c4)nc23)cc1 | inactive
28 | COCc1ccc2c(c1)c(OC(C)(C)C(=O)NCC[S+](C)(=O)[O-])nn2Cc1ccccc1 | active: 35.5 µM
29 | FC(F)(F)c1cccc(Nc2cnc3ccc(N4CCOCC4)nn23)c1 | inconclusive: 44.7 µM [inhibitor, partial curve, poor fit]
30 | Cc1ccc(-n2nc3n(c2=O)CCN(C(=O)Nc2ccc(Cl)cc2)C3)cc1 | inconclusive: 44.7 µM [inhibitor, partial curve, poor fit]
31 | O=C1NCCCCCCN(C(=O)C2CCCCC2)[C@H]2CCCC[C@@H]12 | inconclusive: 50.1 µM [inhibitor, partial curve, poor fit]
32 | Cc1nc(N2CCCCC2)n(CC(=O)Nc2cccc(Br)c2)c(=O)c1C | inconclusive: 28.2 µM [inhibitor, full curve]
33 | Cc1ccc(-n2c(C3CCN(C(=O)c4ccc(C)c(C)c4)CC3)n[nH]c2=O)cc1 | inconclusive: 3.98 µM [inhibitor, full curve, poor fit]
34 | CN(C)C1CCN(c2nccc(C3(c4ccccc4Cl)CCNCC3)n2)C1 (stereo not drawn) | inconclusive: 50.1 µM [inhibitor, partial curve, poor fit]
35 | CN(C)C(=O)N(C)Cc1cccc(N2CCN(C(=O)c3c(Cl)cccc3Cl)CC2)c1F | inconclusive: 50.1 µM [inhibitor, partial curve, poor fit]
36 | Cc1ccccc1Oc1c(CCC(=O)N(C)C(C)C)c(C)nn1-c1ccccc1C | inconclusive: 44.7 µM [inhibitor, partial curve, poor fit]
37 | OC[C@@H]1CN(c2ccc(-c3nc(-c4cccc(C(F)(F)F)c4)no3)cn2)C[C@H]1CO | inactive
38 | CSc1ccc(-c2cccc(C(=O)NCCNC(=O)c3ccc(Cl)nc3)c2)cc1 | inactive
39 | O=C(NCC(F)F)c1cc(-c2cccs2)c2cccn2n1 | inconclusive: 56.2 µM [inhibitor, partial curve, poor fit]
40 | CN(Cc1nc(-c2ccccn2)no1)C(=O)C1CC2(CCNCC2)CN1 (stereo not drawn) | inactive
41 | CCOc1ccccc1NC(=O)N1CCN(C(=O)N2CC3CC(C2)[C@H]2CCCC(=O)N2C3)CC1 (stereo partly drawn) | inactive
42 | O=C(OCc1ccccc1)N1CCOCC12CCN(Cc1ccc(F)cc1)CC2 | inconclusive: 89.1 µM [inhibitor, partial curve, poor fit]

Row | SMILES | Potency
43 | O=C1Nc2ccc(-c3ccccc3)cc2C(=O)N2CC[C@H](NS(=O)(=O)c3cccs3)[C@@H]12 | active: 20 µM
44 | CC(C)CCN1C[C@@H]2C[C@H]1C(=O)N(C)c1ccccc1O2 | inconclusive: 100 µM [inhibitor, partial curve, poor fit]
45 | O=C([C@H]1CCCN1C(=O)Nc1ccccc1)N1CCC(N2CCOC2=O)CC1 | inactive
46 | Cc1csc(NC(=O)c2nc3c(o2)CCN(Cc2ccc4[nH]ccc4c2)CC3)n1 | inconclusive: 70.8 µM [inhibitor, partial curve, poor fit]
47 | Cc1oc(C2CCN(C(=O)CCc3cc(Cl)no3)CC2)nc1C(=O)N1CCOCC1 | inactive
48 | Cc1noc(-c2ccc3c(c2)OCO3)c1C(=O)NCc1cc(F)cc(F)c1 | inconclusive: 39.8 µM [inhibitor, partial curve, poor fit]
49 | O=C(NCc1ccc(C(F)(F)F)cc1)C1CN(c2cccc(Cl)c2)C(=O)N1 (stereo not drawn) | inconclusive: 50.1 µM [inhibitor, partial curve, poor fit]
50 | O=C1NCCCCCCN(Cc2ccncc2)[C@@H]2CN(Cc3ccncc3F)CC[C@@H]12 | inactive
51 | COCCCn1c(=O)c(C(=O)N2CCN(C(=O)Cc3ccc(OC)cc3)CC2)nc2cccnc21 | inactive
52 | O=C(NCc1cccs1)c1nc(-c2ccc(Cl)cc2Cl)c2ccccn12 | inconclusive: 44.7 µM [inhibitor, partial curve, poor fit]
53 | Cc1ccc(C(=O)N2CCC3(CNc4ccccc4[S+](=O)([O-])N3)C2)cc1 (stereo not drawn) | inconclusive: 44.7 µM [inhibitor, partial curve, poor fit]
54 | COC[C@@H]1CN(Cc2ccc(C)o2)C[C@H]1C(=O)N(C)C | inactive
55 | O=C(COc1ccc(F)cc1)N1CCC(Cc2nncn2Cc2ccccc2)C1 (stereo not drawn) | inconclusive: 50.1 µM [inhibitor, partial curve, poor fit]
56 | Cn1c(CN2CC[C@H](c3nc4ccccc4[nH]3)C2)nc2ccccc21 | inconclusive: 25.1 µM [inhibitor, full curve]
57 | CC(C(=O)N1CCc2onc(-c3ccc(F)c(F)c3)c2C1)n1ccnc1 (stereo not drawn) | inconclusive: 89.1 µM [inhibitor, partial curve, poor fit]
58 | COc1ccc2c(c1)C(CNCc1ccccc1)=CC(C)(C)CO2 | inactive
59 | O=C(CC1CCCCC1)N1CCC(Cc2nc(C3CC3)n[nH]2)C1 (stereo not drawn) | inactive
60 | Cc1cnccc1CN(C)C(=O)c1cc(COc2ccc(-n3cncn3)cc2)on1 | inconclusive: 25.1 µM [inhibitor, partial curve, poor fit]
61 | Cn1ncc2c(C(=O)NCc3ccc4c(c3)OCO4)cc(-c3ccc(Cl)cc3Cl)nc21 | inconclusive: 28.2 µM [inhibitor, full curve, poor fit]
62 | Cn1ncc2c(C(=O)N3CCN(c4ncccn4)CC3)cc(-c3ccc(Cl)nc3)nc21 | inconclusive: 44.7 µM [inhibitor, partial curve, poor fit]
63 | COC(=O)[C@@H]1Cc2c([nH]c3ccccc23)[C@H]2C[C@@H](NCCN(C)C)C[C@@H](c3cccc(Cl)c3)N21 | active: 4.47 µM
